Assay results: publication PMC8955265 (2022)

How the values were obtained:
Assay in all cases: FP; competition
[1] = biological target: ETV5 bisphosphorylated phosphodegron peptide (human, UniProt P41161, bisphosphorylated (the two phosphorylatable residues of the degron are aa135 and 139))
[2] = biological target: JAZF1 bisphosphorylated phosphodegron peptide (human, UniProt Q86VZ6, bisphosphorylated (the two phosphorylatable residues of the degron are aa109 and 113))
[3] = biological target: CCAR2 phosphodegron peptide (P + 4 nonphospho class) (human)
[4] = biological target: ARID4B bisphosphorylated phosphodegron peptide (human, UniProt Q4LE39, bisphosphorylated (the two phosphorylatable residues of the degron are aa1022 and 1026))
[5] = biological target: ZMIZ1 bisphosphorylated phosphodegron peptide (human, UniProt Q9ULJ6, bisphosphorylated (the two phosphorylatable residues of the degron are aa517 and 521))
[6] = biological target: KLF4 bisphosphorylated phosphodegron peptide (human, UniProt O43474, bisphosphorylated (the two phosphorylatable residues of the degron are aa394 and 398))
[7] = biological target: KAT6B bisphosphorylated phosphodegron peptide (human, UniProt Q8WYB5, bisphosphorylated)

Kd [1]: 16.1 nM
Kd [2]: 29.7 nM
Kd [3]: 2190 nM
Kd [4]: 17.7 nM
Kd [5]: 52.3 nM
Kd [6]: 11 nM
Kd [7]: 2.8 nM
B1: Skp1-FBXW7 complex (complex)
chain 1: [sequence of about 150 residues omitted]
chain 2: TQVKHMMQVIEPQFQRDFISLLPKELALYVLSFLEPKDLLQAAQTCRYWRILAEDNLLWREKCKEEGIDEPLHIKRRKVIKPGFIHSPWKSAYIRQHRIDTNWRRGELKSPKVLKGHDDHVITCLQFCGNRIVSGSDDNTLKVWSAVTGKCLRTLVGHTGGVWSSQMRDNIIISGSTDRTLKVWNAETGECIHTLYGHTSTVRCMHLHEKRVVSGSRDATLRVWDIETGQCLHVLMGHVAAVRCVQYDGRRVVSGAYDFMVKVWDPETETCLHTLQGHTNRVYSLQFDGIHVVSGSLDTSIRVWDVETGNCIHTLTGHQSLTSGMELKDNILVSGNADSTVKIWDIKTGQCLQTLQGPNKHQSAVTCLQFNKNFVITSSDDGTVKLWDLKTGEFIRNLVTLESGGSGGVVWRIRASNTKLVCAVGSRNGTEETKLLVLDFDVDMK
